Measured values as given in PubChem BioAssay (NCATS).
The inconclusive results got no clear call from the source; some entries with a clear call stand among them for comparison. A potency beside an inconclusive call is a rough fit, not a confirmed value. Active and inactive are the calls of the source. Calls follow the shape of the dose curve; as a rule, active = well fitted cell-killing curve with a large enough effect; inconclusive = small, poorly fitted or top-dose-only effect, or effect the other way; inactive = no such curve, though single readings can be large or run the other way.

Test: Viability qHTS for spleen associated tyrosine kinase inhibitor (SYKi) naive MV4-11 cells (AID 1963823); also: nearly all actives have a fitted effect of over 40% in size
Details: MV4-11 AML viability, CellTiter-Glo luminescence, 72 h; viability (% of control): at 45 µM (top of the series)
Method in brief: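 In this viability screen, compounds acted on SYK inhibitor naive MV4-11 cells for three days (72 hr, 37 C). Remaining viable cells were measured by CellTiter-Glo luminescence following a 10 min room-temperature development.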
Potency is read from the fitted curve at half-maximal effect; tags tell the direction and shape of the fitted curve.

Row | SMILES | viability (% of control) | Potency
1 | COc1ccc(C(=O)c2ccccc2)c(O)c1 | inactive: 90.2% | –
2 | Clc1ccc2c(c1)Nc1ccccc1S2 | inactive: 60.8% | –
3 | CCCC(=O)c1cc(O)c(O)cc1O | inactive: 78.3% [at 91.9 µM] | –
4 | CN(CCOc1ccc(C[C@H](Nc2ccccc2C(=O)c2ccccc2)C(=O)O)cc1)c1ccccn1 | – | inconclusive: 18.6 µM [cytotoxic, partial curve, poor fit]
5 | Cc1c2oc3c(C)ccc(C(=O)N[C@@H]4C(=O)N[C@H](C(C)C)C(=O)N5CCC[C@H]5C(=O)N(C)CC(=O)N(C)[C@@H](C(C)C)C(=O)O[C@@H]4C)c3nc-2c(C(=O)N[C@@H]2C(=O)N[C@H](C(C)C)C(=O)N3CCC[C@H]3C(=O)N(C)CC(=O)N(C)[C@@H](C(C)C)C(=O)O[C@@H]2C)c(N)c1=O | – | inconclusive: 0.0024 µM [cytotoxic, full curve]
6 | COc1cc(C(=O)NC(N)=Nc2ccc(C)c(NC(=O)c3ccc(-c4ccccc4)cc3)c2)cc(OC)c1OC | – | active: 14.8 µM
7 | COc1cc2c(NC3CCN(C4CCCCC4)CC3)nc(N3CCCN(C(C)C)CC3)nc2cc1OCCCN1CCCCC1 | – | inconclusive: 2.35 µM [cytotoxic, full curve]
8 | CN(C)CCCN1c2ccccc2Sc2ccccc21 | – | inconclusive: 16.8 µM [cytotoxic, partial curve]
9 | CC(=O)Nc1ccc(/C=N/NC(N)=S)cc1 | – | inconclusive: 21.1 µM [cytotoxic, single point]
10 | NC(=O)n1c(O)c(C(=O)c2cccs2)c2cc(Cl)ccc21 | – | inconclusive: 21.1 µM [cytotoxic, partial curve]
